Results taken from the supplement of paper PMC3334620.
Whole data set: some 33,000 sequences, median “E-score (-0.5 to 0.5)” near -0.016, cut for the highest 2% near 0.32. The list shows a part of the results.

Each sequence was assayed against T1, Stp1 (UniProt B3LFK1) (assay: PBM E-score (8-mer binding enrichment) (E-score (-0.5 to 0.5)); higher = stronger / more preferred TF binding; most listed sequences are background and not binding sites). Settings: protein concentration: 200 nM; construct: GST-full length.
T1 sequence: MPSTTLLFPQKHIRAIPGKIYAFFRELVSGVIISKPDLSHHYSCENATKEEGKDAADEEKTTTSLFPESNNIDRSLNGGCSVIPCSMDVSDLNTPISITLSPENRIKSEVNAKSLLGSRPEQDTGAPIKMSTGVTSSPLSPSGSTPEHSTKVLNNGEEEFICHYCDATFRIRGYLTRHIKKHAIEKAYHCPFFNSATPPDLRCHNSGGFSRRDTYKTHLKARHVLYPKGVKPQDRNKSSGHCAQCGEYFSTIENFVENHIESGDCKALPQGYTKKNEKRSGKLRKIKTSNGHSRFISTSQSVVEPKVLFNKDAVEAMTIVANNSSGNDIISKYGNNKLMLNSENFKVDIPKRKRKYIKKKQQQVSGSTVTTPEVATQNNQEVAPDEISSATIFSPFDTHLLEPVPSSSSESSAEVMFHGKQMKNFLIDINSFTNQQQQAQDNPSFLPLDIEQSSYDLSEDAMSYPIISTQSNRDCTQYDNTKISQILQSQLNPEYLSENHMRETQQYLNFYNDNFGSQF
Experimental: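 Universal 'all 10-mer' protein binding microarrays (Agilent AMADID 015681) probed with GST-tagged S. cerevisiae TFs (full-length or DBD) made by in vitro transcription/translation (PURExpress), about 100-200 nM. Bound TF was detected with fluorescent anti-GST. Each ungapped 8-mer (which stands for itself and its reverse complement) is scored by the PBM enrichment score (E-score), a modified Wilcoxon-Mann-Whitney statistic from -0.5 to +0.5, computed with the Universal PBM Analysis Suite. Scale: above 0.35 generally sequence-specific binding.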

Sequence	PBM E-score
CATGGGAG	-0.212
GATATCAA	0.161
GAACTGCA	0.0883
ATCTCAAA	0.117
GCGACAAA	0.14
ACACTGAA	0.259
ACCTCCCC	-0.202
CCCGCCCG	0.0222
ACGCTCCA	0.0827
ATACCTCC	-0.265
GCGGTAAA	0.266
TCATACCA	0.0532
ACAGGATA	0.086
AACATACC	-0.0361
TCTCCGAA	-0.0131
AGATTGAA	0.0661
CCACAATA	-0.0649
CTAATTGA	0.0893
CGTAGGCA	-0.00045
AATGGCTC	0.066
GCAATCGC	0.0377
ATCTGATA	-0.106
ATTGTCTA	0.155
CTCGGACA	-0.18
GCATACCC	-0.0496

Sequence	PBM E-score
CTCTGCCA	-0.168
CAAACGTC	-0.0561
CCTAACTC	-0.21
GCTCGTTA	-0.0232
ATAACAAC	0.0997
ATATTAAC	0.282
ATCGCCTC	0.356
ATAAACCA	0.0831
AAAGTATC	0.118
ACTGCCGG	0.0822
AGCATTAC	-0.0767
AGTGCTTC	-0.234
GGGATGAA	-0.138
AAAACTTC	0.1
GAAGGTGA	0.0707
ACTACTGA	-0.0374
GCTGGAAA	0.0632
GAGGCATA	0.224
CATTTCAA	0.13
AGGAATAG	-0.00933
ACTCACAG	-0.05
CTCCGATC	-0.191
CTCGGCCC	-0.176
TGCCTGAA	-0.177
AATCTCCG	0.0641

Sequence	PBM E-score
AAGGCCGA	0.0988
ACCTACGC	-0.0171
CGGCCTCC	-0.107
GAATAGGC	0.04
AAACGATC	0.0154
CGCGAACG	0.103
AGCTGACC	-0.263
AGCATGAT	-0.123
GGGATCCC	-0.172
ATGCCAGC	-0.179
CAGTCTCA	0.0195
AGGGCACA	0.334
GATCCTCA	-0.093
ATGGACGC	0.164
AGACGTAG	-0.139
AGTAACAT	0.0488
TAACCGAA	-0.0418
CGCTTAAG	0.0625
ATCTGATC	0.0183
CCGTCGCC	0.3
GGTGAATA	0.0219
AAACAGAC	0.0566
ACGGACTA	0.0284
TGCACGCA	-0.0286
CCAAGAAA	0.0473

Sequence	PBM E-score
AATACTAA	0.102
AGGGCATC	0.11
CATGCGTA	0.0493
GGTAGGAA	-0.0947
ATCAAAAT	0.151
AACGTTCA	-0.263
CCAAGGTC	-0.0943
GCGGTCTA	-0.0316
AGCAATTG	0.149
ACGCAGCT	-0.0862
CACTATAA	-0.00554
ATATACTC	-0.156
AGCGTATA	0.109
AAGCCGGC	-0.0268
GGAACCAC	-0.078
CATCCAGG	-0.122
AGCTCAGG	-0.13
AGTTTTGG	-0.0431
CCTTGTAC	0.0435
CCCCATAC	-0.00995
CGCTGATC	-0.0938
GTGACCTA	-0.238
CGTGGTAG	0.0444
AAATCCGA	-0.0377
GCCAGCCA	-0.117

Sequence	PBM E-score
ATGTACCA	-0.0865
CAACTACA	-0.00193
CCCTGGGA	-0.262
GACATGGA	-0.0837
CCTGGAGA	-3e-05
CCTCCTCC	-0.178
GATGTGAC	-0.15
CACTCGAG	-0.0245
GATCGATC	-0.136
CGGTGGAC	-0.15
TACCCGCA	0.241
CAATGGAG	-0.126
CAAGAAAA	0.096
AGTCACCG	-0.181
AAAGGGAT	-0.139
GCTTACAA	0.092
AGCCTCGA	-0.172
ACCCGCGG	0.228
CTCTCCTC	-0.318
CGTTCTAC	-0.0641
AGAAAGCC	0.17
GACTTGAA	-0.171
CCCTGAAG	-0.11
AGAAACCC	0.0212
AGCAGCCA	0.0221

Sequence	PBM E-score
TAATGTAA	0.0488
AAGGGCCG	0.0849
GGTACCCA	-0.177
CGAGCCGA	0.124
ATGACTCC	-0.185
CTTAGTGA	0.03
AGACCATA	0.159
CTCGGGCA	0.0927
GCAAGTCC	-0.142
CCGCTACA	-0.0852
ATTACCAA	0.177
AACATGCC	0.164
ATGCGAAG	0.0622
CCAAAATA	0.139
TCCCCCGA	-0.345
ATACTGAG	0.162
CATGTCAC	0.0114
AATCGATG	0.174
AAAGGTAC	-0.00049
CAACAGAA	-0.11
ATTAGAAG	0.0611
AAATCGAA	0.0881
GATGGTTA	-0.124
CAGACAAG	-0.0459
CAGGCCAG	-0.0909

Sequence	PBM E-score
CCAGGAGG	-0.109
AGGTTGCA	0.169
ATCCGAGG	0.0595
CAAATACG	0.157
CGGGGTTC	-0.251
CAGTATAC	0.0563
AACGAATG	0.0946
AAAGGGAA	-0.116
GGGGGAAA	-0.276
CTAAATGC	0.146
GGCGCCCA	0.311
CTGGTGGA	-0.209
AAATCATG	0.0843
CCGTAAAG	0.13
CGTAGACA	0.0241
TGCCCCAA	0.00852
GAGGTTAC	-0.11
CGCCGAGC	0.248
CCTTGTGC	-0.0169
GAAAATAC	0.117
CAAAGAGC	0.0667
GGAGCCCC	-0.263
CTTTTCAA	0.105
ATTCAGCA	-0.143
ACCGCGTA	0.051

Sequence	PBM E-score
AGCGCACT	-0.267
ACCATCGG	-0.256
AACGATCT	-0.0536
GCTACTCA	-0.1
ATACAGGA	0.0874
CCAACGGA	0.063
CCGGTCAC	-0.157
AGAAACTC	-0.0229
CTCAACTC	-0.205
AGAAACAT	0.0325
GCATAGAC	-0.0398
GCACGAGC	0.0963
ACGTTCGG	-0.0338
GCTCCGCC	0.088
AGTCTACC	-0.237
ACTGTTAG	-0.0658
AGGGACCA	-0.242
AGCGCGCC	0.196
GCGTACTA	-0.0007
AAGACGAT	0.079
ATGAGCAA	0.0309
ACAAGTGA	0.0241
CGAAGTGA	0.00778
AGGACAGC	-0.0847
GACACCCC	-0.326

Sequence	PBM E-score
CACTAACC	-0.0137
CATATGGG	-0.035
CGATGAAA	0.13
CAAATCAC	-0.184
AGATGCCT	0.107
AGTAAACG	-0.0409
ACATCGTC	-0.138
CATTGTCC	-0.117
CGTAACCC	0.0311
AATACTTC	-0.00056
GCCGTCCC	0.378
CCGATTAA	0.159
GCGCCAAA	0.138
GTCGCACA	-0.0841
GCCTCCGC	0.173
CCTCGGAC	-0.148
ACTCGACG	0.00711
CTCTTTGC	-0.105
AACAGTTC	-0.0265
